In paper PMC4336329 (PLoS ONE, 2015):
In all, about 310,000 compounds went through this assay and about 2,200 (0.71%) showed an effect of 50% or more. Effects have a minus sign here. The list shows a part of the results.

Each molecule was assayed against human ether-à-go-go-related gene (hERG) potassium channel (human, UniProt Q12809) (assay: primary screen, population patch clamp on CHO cells stably expressing hERG).
Chain of human ether-à-go-go-related gene (hERG) potassium channel (Q12809 whole entry, looked up): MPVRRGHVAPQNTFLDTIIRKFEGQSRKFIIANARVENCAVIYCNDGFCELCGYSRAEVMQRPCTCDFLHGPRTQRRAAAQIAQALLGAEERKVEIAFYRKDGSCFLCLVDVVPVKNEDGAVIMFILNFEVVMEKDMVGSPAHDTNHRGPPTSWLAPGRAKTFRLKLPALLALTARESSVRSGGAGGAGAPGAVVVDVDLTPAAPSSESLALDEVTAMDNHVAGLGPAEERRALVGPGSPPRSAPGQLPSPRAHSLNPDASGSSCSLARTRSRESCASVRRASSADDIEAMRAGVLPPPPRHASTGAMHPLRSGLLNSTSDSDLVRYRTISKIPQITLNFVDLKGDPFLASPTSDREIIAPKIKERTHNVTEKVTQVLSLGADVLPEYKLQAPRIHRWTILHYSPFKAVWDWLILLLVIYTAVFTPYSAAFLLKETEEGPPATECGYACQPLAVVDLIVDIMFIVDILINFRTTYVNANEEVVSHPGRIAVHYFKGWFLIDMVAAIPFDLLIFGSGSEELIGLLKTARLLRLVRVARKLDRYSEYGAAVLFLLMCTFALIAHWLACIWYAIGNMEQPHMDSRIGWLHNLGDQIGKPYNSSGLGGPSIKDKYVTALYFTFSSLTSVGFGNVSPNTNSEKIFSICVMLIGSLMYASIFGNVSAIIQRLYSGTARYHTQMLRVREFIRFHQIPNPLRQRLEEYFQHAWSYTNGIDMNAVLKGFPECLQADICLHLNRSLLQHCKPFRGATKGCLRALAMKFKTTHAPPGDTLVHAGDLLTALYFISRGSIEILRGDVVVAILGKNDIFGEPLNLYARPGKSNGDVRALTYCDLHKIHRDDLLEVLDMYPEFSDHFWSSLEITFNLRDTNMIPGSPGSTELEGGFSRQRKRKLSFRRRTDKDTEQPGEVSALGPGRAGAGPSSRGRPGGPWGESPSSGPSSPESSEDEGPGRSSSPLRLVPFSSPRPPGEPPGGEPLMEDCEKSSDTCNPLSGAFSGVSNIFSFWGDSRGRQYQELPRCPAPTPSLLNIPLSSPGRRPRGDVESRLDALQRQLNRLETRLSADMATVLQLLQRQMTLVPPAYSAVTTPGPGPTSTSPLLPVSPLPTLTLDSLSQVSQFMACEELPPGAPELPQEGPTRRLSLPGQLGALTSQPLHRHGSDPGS

SMILES | hERG current change (%, negative = inhibition) at 1uM
CC1CCCCN1C(=O)CSc1nc2ccccc2[nH]1 (stereo not drawn) | 15.6%
C1=C(N2CCOCC2)/C(=C/c2nc3ccccc3[nH]2)CC1 | 12.4%
O=C(CSC(=S)N1CCOCC1)Nc1ccc(S(=O)(=O)Nc2ncccn2)cc1 | 16.6%
C=CCOc1ccc2c(c1)C(=NO)c1cc(OCC=C)ccc1-2 | 5.57%
O=C1NC(=O)N(Cc2ccco2)C(=O)/C1=C/C=C/c1ccco1 | 14.5%
Cc1cc(NC(=O)CCC2COc3ccccc3O2)no1 (stereo not drawn) | 3.99%
O=C(Nc1ccc2nc(-c3ccccn3)[nH]c2c1)C1CCCCC1 | 1%
O=C(O)CCCNS(=O)(=O)c1cccs1 | 14.4%
CCN(CC)c1ccc(NC(=O)c2ccccc2OCC(=O)OC)cc1 | 4.39%
COc1ccccc1/C=N/NC(=O)c1nnn(-c2nonc2N)c1CN(C)c1ccccc1 | 16.4%
CC1CCN(Cc2nnnn2CCCC(=O)NCCN2CCOCC2)CC1 | 11%
COc1ccc(C2c3sc(=O)[nH]c3SC3C4CCC(C4)C23)cc1OC (stereo not drawn) | 4.6%
NC(=O)C1(N2CCCCC2)CCN(C(=O)Nc2ccccc2C(F)(F)F)CC1 | 9.64%
C=CC[n+]1c(-c2ccc(C)cc2)csc1Nc1c(C)n(C)n(-c2ccccc2)c1=O.[Br-] | 1.8%
CCOc1ccc2oc(=O)cc(C)c2c1 | 12.5%
C=C1CSc2nc(=O)c3c4c(sc3n21)CCC4 | -1.33%
COc1ccc(N(CC(=O)NCc2ccccc2OC)S(=O)(=O)c2c(C)nn(C)c2C)cc1 | 8.52%
O=C(Nc1cccc(Cl)c1)C1CCCN(S(=O)(=O)c2cnc[nH]2)C1 (stereo not drawn) | 16%
O=C(CNc1ccccc1)N/N=C/c1ccc2c(c1)OCCO2 | 9.93%
Cc1ccc(NC(=S)N2CCN(Cc3ccc4c(c3)OCO4)CC2)c(C)c1 | 7.21%
Cc1ccc(-c2c(C(=O)N/N=C/c3ccco3)nnn2-c2nonc2N)cc1 | 11.6%
CC12CCC(C(=O)N(CCC#N)CCC#N)(CC1=O)C2(C)C (stereo not drawn) | -7.56%
CCOc1ccc2nc(SCC(=O)c3ccccc3)sc2c1 | 17.8%

SMILES | hERG current change (%, negative = inhibition) at 1uM
COc1cccc2[nH]c3c(=O)[nH]cnc3c12 | 12.6%
Cc1cc(C)c(N=Cc2c(O)[nH]c(=O)[nH]c2=O)c(C)c1 | 12%
CC(C)c1ccc(NC(=S)NN2CCOCC2)cc1 | 12.6%
CCNC(=S)N/N=C1\CCCCc2ccccc21 | 2.38%
O=C(NCCCCc1ccccc1)C1CC(c2ccccc2C(F)(F)F)=NO1 (stereo not drawn) | 15.9%
O=C(NCc1cccs1)c1ccc([N+](=O)[O-])cc1Cl | 7.25%
COC(=O)CCC(=O)NC(=S)Nc1ccccc1F | 9.11%
COC(=O)c1cn(C(=O)OC)c2ccccc12 | 4.65%
COc1ccc(C(=O)NCC2(N3CCCCC3)CCCCC2)cc1S(=O)(=O)N(C)C | 9.44%
CC(C)(C)NC(=O)Cn1c(=O)oc2ccc(Cl)cc21 | 9.8%
COc1ccc(C(=O)OC2CCN(C)CC2)cc1.Cl | 1.23%
Cc1ccc(C)n1-n1c(C)nc2scc(-c3cccs3)c2c1=O | 3.06%
CC(C)(C)NC(=O)NC(=O)CSc1cccc(C(F)(F)F)c1 | 11.6%
CCSc1nnc(CSc2ncccn2)n1C | 8.89%
CN(C)c1oc(COc2ccc(F)cc2)nc1C#N | 2.07%
O=C(COC(=O)/C=C/c1ccccc1)NC1CCCCC1 | 6.97%
O=C(NC1CC1)C1CCN(C2CCN(C(=O)Cc3ccc4c(c3)OCO4)CC2)CC1 | 11.6%
Cc1cc(C)n(CCNC(=O)C2CCC(=O)N(CCc3cccc(F)c3)C2)n1 (stereo not drawn) | 14.5%
Cc1ccc(C)c2[nH]c(=O)c(CCNC(=O)c3cccs3)cc12 | 7.48%
Cc1nnc(SCC2=C(C(=O)O)N3C(=O)C(NC(=O)Cn4nc(C(F)F)cc4C)C3SC2)s1 (stereo not drawn) | 4.52%
O=C(COC(=O)C12CC3CC(CC(Br)(C3)C1)C2)Nc1cccnc1Cl | 4.7%
CCC1(C)Cc2nc(Cl)c(C#N)cc2CO1 (stereo not drawn) | 8.18%
